# Results taken from PubChem BioAssay AID463173 (ICCB-Longwood Screening Facility, Harvard Medical School, 2010).
# Out of some 52,000 compounds screened, about 1,700 (3.3%) were called active. No stated cut-off is given here; in the data, active means survival mostly below about 52% (no sharp cut-off); inactive means mostly above about 56%. The list shows a part of the results.
# System: Wild type
# Assay: S. aureus survival, RN4220 and DeltatarO strains – OD600, teichoic acid synthesis inhibitors, primary screen (AID 463173)
# Details: S. aureus RN4220 wild type/DeltatarO growth, OD600, 18 h, hits give low values, screened at 18.75 µg/mL (by protocol)
row,Compound,survival
1,COc1ccc(OC)c(CCNC(=O)c2c(C)nn(-c3ccc(F)cc3)c2-n2cccc2)c1,inactive: 92%
2,COCCCNC(=O)C1CCN(Cc2nc(-c3ccc(OC)c(OC)c3)oc2C)CC1,inactive: 86%
3,Cc1ccc(NC(=O)Cn2c(=O)n(Cc3ccco3)c(=O)c3ccc(C(=O)NC4CCCC4)cc32)c(C)c1,inactive: 87%
4,CCOc1ccc(C(=O)NCC(c2ccc3c(c2)OCO3)N2CCN(c3ccccc3F)CC2)cc1 (stereo not given),inactive: 127%
5,CCOc1ccc(NC(=O)c2c(NCc3ccc(C)o3)sc3c2CCC(C)C3)cc1 (stereo not given),inactive: 113%
6,Cc1nnc(N2CCC(C(=O)NC3CCCCC3)CC2)c2nn(-c3ccc(Cl)cc3)c(C)c12,inactive: 74%
7,CCn1c(=O)cc(SCC(=O)NCCc2cc(OC)ccc2OC)c2ccccc21,inactive: 67%
8,CN1CC(=Nc2nonc2N)N(C)C1=O,inactive: 103%
9,CCN(C(=O)c1nn(-c2ccc(OC)c(Cl)c2)c(=O)c2c1c1ccccc1n2C)c1cccc(C(F)(F)F)c1,inactive: 81%
10,O=C(CN1C(=O)COc2ccc(Cl)cc21)Nc1ccc(F)cc1,inactive: 89%
11,O=C(OCc1cc(=O)n2nc(-c3cccs3)sc2n1)c1ccc(Cl)cc1,inactive: 69%
12,COc1ccc(-c2nc3ccc(NS(=O)(=O)c4ccc(C)cc4)cc3o2)cc1,inactive: 48%
13,COC(=O)c1c(SCC(=O)Nc2cc(OC)cc(OC)c2)[nH]c2ccc(C)cc2c1=O,inactive: 152%
14,CCC1=C(c2ccc(C)cc2)S(=O)(=O)N=C1N1CCC(C(=O)Nc2ccccc2F)CC1,inactive: 79%
15,Cc1ccc(Cn2c(C(=O)NCc3ccccc3Cl)cc3sccc32)cc1,inactive: 108%
16,Cc1nc2sccn2c(=O)c1S(=O)(=O)Nc1ccc(N2CCOCC2)c(Cl)c1,inactive: 93%
17,Cc1ccc(NC(=O)Cn2ncn3c(cc4ccccc43)c2=O)cc1F,inactive: 93%
18,CC(NC(=O)c1ccccc1)c1n[nH]c(=S)n1C (stereo not given),inactive: 109%
19,Cc1nc2nc(CNC(=O)OC(C)(C)C)nn2c(C)c1CCC(=O)NCc1ccc(F)cc1,inactive: 91%
20,CCC1CCC(C(=O)NC(C(=O)Nc2cccc(OC)c2)C(C)C)CC1 (stereo not given),inactive: 71%
21,CCOc1ccc(CNCc2c(C(=O)O)c(C)n(Cc3cccc(OC)c3)c2C)cc1OC,inactive: 75%
22,Cc1cccc(NC(=O)CSc2nnc3[nH]c(=O)cc(-c4ccccc4)n23)c1C,inactive: 135%
23,O=C1CCCN1C(=O)CN1CCCCC1,inactive: 119%

row,Compound,survival
1,Cc1cc(CN2CCN(c3ccccc3F)CC2)cs1,inactive: 82%
2,COC(=O)c1cc2sc(C)cc2n1Cc1cccc(OC)c1,active: 0%
3,COc1ccc(CNC(=O)CCCN2C(=O)CSc3c2c(C)nn3-c2ccccc2)cc1,inactive: 71%
4,CCOC(=O)c1c(C)[nH]c(C)c1S(=O)(=O)N1CCCC(C(=O)NCc2cccc(C)c2)C1 (stereo not given),inactive: 72%
5,Cc1cccn2c(=O)c(C(=O)NCc3ccc(F)cc3)c(O)nc12,inactive: 87%
6,CCN(CC)CCNC(=O)C1CCN(c2nn3cc(-c4ccc(F)cc4)nc3s2)CC1,inactive: 71%
7,Cc1ccc2cc(C#N)c(N3CCCN(S(=O)(=O)c4ccccc4)CC3)nc2c1,inactive: 103%
8,CCOC(=O)c1c(-c2ccc(OC)cc2)oc2ccc(OCc3ccccc3C)cc12,inactive: 47%
9,CCOc1cc(C(=O)Nc2cc3c(cc2N2CCOCC2)n(C)c(=O)n3C)cc(OCC)c1OCC,inactive: 84%
10,O=c1cc(-c2ccccc2)nc(SCc2nc(-c3ccccc3Cl)no2)[nH]1,inactive: 73%
11,CN(C(=O)Nc1ccccc1)C1CCS(=O)(=O)C1 (stereo not given),inactive: 102%
12,CNc1ncnc2c1cnn2-c1ccc(C)c(C)c1,inactive: 87%
13,Cc1ccccc1CNC(=O)CCCn1c(=O)c2cccn2c2cccnc21,inactive: 113%
14,Cc1cccc(NC(=O)c2ccc(-n3cnc4cccnc43)cc2)c1C,inactive: 84%
15,Cc1ccc(N2CC(NC(=O)c3cccs3)CC2=O)cc1C (stereo not given),inactive: 81%
16,CC1CCN(c2nc(N3CCCCC3)nc(N3CCCCC3)n2)CC1,inactive: 112%
17,Cn1c(C(=O)N2CCc3ccccc32)cc2sccc21,inactive: 100%
18,COc1cccc(N=Nc2c(O)[nH]c(=O)[nH]c2=O)c1,inactive: 110%
19,Oc1ccccc1-c1nc(/C=C/c2ccccc2Cl)nn1-c1ccccc1,active: 2%
20,COc1cc(NC(=O)c2cccc3c2C(=O)N(C2CCCCC2)C3)cc(OC)c1OC,inactive: 52%
21,CCc1ccc(C(=O)c2cn(CC(=O)Nc3ccc4c(c3)OCO4)c3ccc(OC)cc3c2=O)cc1,inactive: 69%
22,COc1ccc(-c2noc(=O)n2Cc2ccccc2)cc1,inactive: 128%
